Test results: PMC4336329 (PLoS ONE, 2015)
The campaign covered roughly 310,000 compounds. About 2,200 (0.71%) showed an effect of 50% or more. Effects have a minus sign here. The list shows a part of the results.

What follows are compounds tested against human ether-à-go-go-related gene (hERG) potassium channel (human, UniProt Q12809) (assay: primary screen, population patch clamp on CHO cells stably expressing hERG).
Sequence of human ether-à-go-go-related gene (hERG) potassium channel (Q12809 whole entry, looked up): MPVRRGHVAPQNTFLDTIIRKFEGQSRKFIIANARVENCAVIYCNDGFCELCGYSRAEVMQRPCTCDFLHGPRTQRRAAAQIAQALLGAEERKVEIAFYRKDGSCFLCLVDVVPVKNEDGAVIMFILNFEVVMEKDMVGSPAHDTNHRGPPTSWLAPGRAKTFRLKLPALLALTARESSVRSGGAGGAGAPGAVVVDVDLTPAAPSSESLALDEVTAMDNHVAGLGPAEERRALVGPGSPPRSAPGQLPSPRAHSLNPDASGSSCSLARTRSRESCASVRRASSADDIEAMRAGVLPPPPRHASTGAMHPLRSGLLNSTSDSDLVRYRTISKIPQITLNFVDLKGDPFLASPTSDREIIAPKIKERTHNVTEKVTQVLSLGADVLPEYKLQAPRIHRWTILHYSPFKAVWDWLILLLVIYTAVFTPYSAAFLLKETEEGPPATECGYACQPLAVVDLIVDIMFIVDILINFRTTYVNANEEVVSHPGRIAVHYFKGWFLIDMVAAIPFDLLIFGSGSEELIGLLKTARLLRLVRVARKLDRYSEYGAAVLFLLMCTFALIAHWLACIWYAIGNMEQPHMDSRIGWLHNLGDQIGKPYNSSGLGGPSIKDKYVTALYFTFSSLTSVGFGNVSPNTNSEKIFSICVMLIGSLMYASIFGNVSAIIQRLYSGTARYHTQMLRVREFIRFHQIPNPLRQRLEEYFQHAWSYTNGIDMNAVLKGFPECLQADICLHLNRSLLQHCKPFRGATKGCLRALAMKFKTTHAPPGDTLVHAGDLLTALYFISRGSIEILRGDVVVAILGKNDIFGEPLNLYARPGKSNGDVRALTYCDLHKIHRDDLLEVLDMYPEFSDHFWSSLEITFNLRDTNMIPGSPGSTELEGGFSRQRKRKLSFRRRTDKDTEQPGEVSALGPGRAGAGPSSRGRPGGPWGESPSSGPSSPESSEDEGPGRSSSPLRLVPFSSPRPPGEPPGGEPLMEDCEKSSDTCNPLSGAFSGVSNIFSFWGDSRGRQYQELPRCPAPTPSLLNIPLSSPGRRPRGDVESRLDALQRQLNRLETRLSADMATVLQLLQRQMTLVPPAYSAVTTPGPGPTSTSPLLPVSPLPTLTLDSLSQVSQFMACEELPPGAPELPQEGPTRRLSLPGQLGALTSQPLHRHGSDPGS

Row | SMILES | hERG current change (%, negative = inhibition) at 1uM
1 | Cc1ccc(-c2csc(-c3cc(C)on3)n2)cc1 | 21.4%
2 | Cc1nnc(NC(=O)C2CCN(c3cnccn3)CC2)s1 | 6.88%
3 | Cc1c(C(=O)N2CCOCC2)sc2ncn(CC(=O)N3CCC(C)CC3)c(=O)c12 | 2.81%
4 | CC(=O)Nc1ccc(-c2cc(-c3ccc(NC(C)=O)cc3)nc(-c3ccccc3)n2)cc1 | 5.67%
5 | CCCCNCc1cc(OCC)c(OCC)cc1Br.Cl | 17%
6 | COc1ccc(C(=O)Nc2cccc(C(=O)N3CCCCC3)c2)cc1 | 13.9%
7 | O=C(c1cccc2ccccc12)N1CCN(c2ccccc2F)CC1 | 6.94%
8 | O=C(CN1CCCC1)Nc1ccc([N+](=O)[O-])cc1 | -7.9%
9 | O=C1OCc2cccc([N+](=O)[O-])c21 | 12.8%
10 | COC(=O)c1ccc(-n2c(C)cc(C(=O)COC(=O)CNS(=O)(=O)c3ccc(C)cc3)c2C)cc1 | 3.35%
11 | COc1ccc(C(=O)NC(=S)Nc2ccc3c(c2)Cc2ccccc2-3)cc1 | 16.8%
12 | Cc1ccc(C(=O)Nc2ccc3c(c2)OCO3)cc1Cl | 16.6%
13 | CC(Sc1nc2ccccc2s1)C(=O)c1c(N)n(C)c(=O)n(C)c1=O (stereo not drawn) | 16.8%
14 | COc1ccc(N2C(=O)c3ccccc3NC2c2ccc(OC)c(Cn3cc([N+](=O)[O-])cn3)c2)cc1 (stereo not drawn) | 6.5%
15 | COc1nc(NCc2cccnc2)nc(OC)n1 | 11%
16 | COc1cc(CC(=O)Nc2cccc(C(F)(F)F)c2)cc(OC)c1OC | 4.11%
17 | Cl.O=C(c1ccccc1)C(CCC(CN1CCOCC1)C(=O)c1ccccc1)CN1CCOCC1 (stereo not drawn) | 3.47%
18 | CCCCc1ccc(NC(=O)Nc2cc(C)nn2C)cc1 | 16.1%
19 | CC(=O)NCCc1nc2ccccc2n1CCOc1ccccc1C | 7.65%
20 | O=C(OCc1ccccc1F)c1ccc2c(c1)-c1ccccc1C2=O | 8.02%
21 | O=c1c2cc(N3CCOCC3)ccc2[nH]c(=S)n1Cc1ccco1 | -0.262%
22 | Cc1c(CNC(=O)C2CC2)c(-n2cccc2)n(Cc2ccccc2)c1C | 24.6%

Row | SMILES | hERG current change (%, negative = inhibition) at 1uM
23 | COc1ccc2nc(SCC(=O)N(C)CC(=O)Nc3ccc(F)cc3)[nH]c2c1 | 2.15%
24 | COc1cc(-c2nc3n(n2)C(c2cccc(OC)c2OC)C2=C(CCCC2=O)N3)cc(OC)c1OC (stereo not drawn) | -11%
25 | CCCCn1c(NS(=O)(=O)c2ccccc2)c(S(=O)(=O)c2ccc(C)cc2)c2nc3ccccc3nc21 | 4.02%
26 | Cc1ccc(C)c(CN2C(=O)CSc3ccc(C(=O)N4CCCC4)cc32)c1 | 5.65%
27 | COc1cc(CCC(=O)OCC(=O)Nc2ccccc2F)cc(OC)c1OC | 21.2%
28 | O=C(NCC(=O)N(c1cccnc1)C(C(=O)NC1CCCC1)c1ccccc1F)c1ccco1 (stereo not drawn) | 6.92%
29 | Cc1cc(C(F)F)n2nc(C(=O)Nc3cccc(S(=O)(=O)N4CCOCC4)c3)nc2n1 | 7.14%
30 | c1ccc(-c2nccc(-c3ccc(-n4cnc5ccccc54)cc3)n2)nc1 | -15.5%
31 | Clc1ccccc1/C=C/C=N/Nc1nc(N2CCOCC2)nc(N2CCOCC2)n1 | -4.27%
32 | CCCn1nc(NS(C)(=O)=O)c2cc3cccc(C)c3nc21 | 3.57%
33 | Cl.NC(=NC1CCCCC1)c1ccc([N+](=O)[O-])cc1 | -33%
34 | CCN(Cc1ccncc1)C(=O)c1ccc(Br)o1 | 5.46%
35 | Cc1ccc(C)c2[nH]c(=O)c(CN(CC3CCCO3)S(=O)(=O)c3ccc4c(c3)OCCO4)cc12 (stereo not drawn) | 11.2%
36 | O=C(COC(=O)CNC(=O)c1ccc(Cl)cc1)NC1CCCCCC1 | 17.4%
37 | O=C(C1CCN(S(=O)(=O)c2ccc(F)cc2)CC1)N1CC=C(c2ccccc2)CC1 | 0.691%
38 | CC1CCN(C(=O)C2CCCN(S(=O)(=O)c3cccc4nsnc34)C2)CC1 (stereo not drawn) | 7.06%
39 | CN(C)S(=O)(=O)n1cc(/C=C(\NC(=O)c2ccccc2)C(=O)NCCCN2CCOCC2)c2ccccc21 | 14.2%
40 | CCOC(=O)[C@@H]1[C@H]2COc3ccc(Br)cc3[C@@H]2N2C(=O)N(c3cccc(Cl)c3)C(=O)[C@]12C | 13.8%
41 | COc1ccc(S(=O)(=O)N2CCCCC2)cc1NC(=O)Cc1sc(C)nc1-c1ccc(F)cc1 | 3.12%
42 | N#CCCn1c(SCC(=O)NCCc2ccc(F)cc2)nc2ccccc21 | -10.8%
43 | CC(Cc1ccccc1)NC(=O)CC(c1ccccc1)c1ccccc1O (stereo not drawn) | 13.1%
44 | Cc1ccc(SCC(=O)OC(C)C(=O)NC2(C#N)CCCCC2)cc1 (stereo not drawn) | 11.5%

Row | SMILES | hERG current change (%, negative = inhibition) at 1uM
45 | COc1ccc(CN2CCNC(=O)C2CC(=O)NCc2cnn(C)c2)cc1OC (stereo not drawn) | 4.85%
46 | CCCOC(=O)c1cc(NC(=O)/C=C/c2ccccc2)ccc1O | 12.6%
47 | COc1ccc(CNC(=O)CSc2nnc(C)c(=O)[nH]2)cc1 | 2.84%
48 | Cc1cc(C(=O)Nc2ccccc2C(=O)O)ccc1NC(=O)COc1ccccc1Cl | 3.04%
49 | O=C(COC(=O)c1ccccn1)Nc1nc(-c2ccccc2)cs1 | 18.8%
50 | CCOc1ccc(C(=O)NCC(c2ccco2)N2CCc3ccccc3C2)cc1 (stereo not drawn) | -7.04%
51 | O=C(Nn1c(-c2ccccc2)nc2ccccc2c1=O)c1ccc([N+](=O)[O-])cc1 | 13.2%
52 | CC1CCCCC1NC(=O)CO/N=C/c1ccccc1OC(F)F (stereo not drawn) | -7.44%
53 | COc1cc(/C=N\NC(=O)c2ccc(C)nc2)ccc1OC(=O)c1ccc2c(c1)OCO2 | 10.9%
54 | CC(=O)Nc1ccc(NC(=O)C(C)OC(=O)CC2CCCCC2)cc1 (stereo not drawn) | 17.3%
55 | Cc1ccc(-c2cnc(-c3ccncc3)o2)cc1 | -14.5%
56 | CCN(Cc1cnn(C)c1)Cc1nc(C(c2ccccc2)c2ccccc2)no1 | 4.82%
57 | CCN(CC)C1=N/C(=C\c2ccc(OC)cc2)C(=O)N1c1ccccc1 | 3.33%
58 | CCOc1ccc(Cl)cc1C1=CC(=O)C[C@H](c2ccc(OC)cc2)C1 | -0.284%
59 | Cc1cc(N2CCC(C(=O)Nc3ccc(F)cc3)CC2)nc(-c2ccccc2)n1 | 5.59%
60 | COC(=O)CNc1c(-c2ccccc2)nc2ccc(Br)cn12 | -6.27%
61 | COC(=O)c1cccc(Cn2nnc3ccccc3c2=O)c1 | -2.79%
62 | COc1ccc(C2c3c(oc4ccccc4c3=O)C(=O)N2CCN2CCOCC2)cc1OC (stereo not drawn) | 9.36%
63 | CN(CC(O)COc1ccccc1F)C1CCCCC1.Cl (stereo not drawn) | 10.8%
64 | CC(C)(CNc1ccc([N+](=O)[O-])cc1C#N)N1CCOCC1 | 0.218%
65 | Cn1c(=O)c2c(nc(SCc3ccc(F)cc3)n2C)n(C)c1=O | 10.2%
66 | O=C(NCCCCc1ccccc1)c1ccc(Br)o1 | -0.674%

Row | SMILES | hERG current change (%, negative = inhibition) at 1uM
67 | COc1ccc(CCN2CC(C(=O)NCc3nc(C)c(C)s3)CCC2=O)cc1 (stereo not drawn) | -14.4%
68 | Cc1nc2ccccc2nc1OCC(=O)N1CCN(c2ccccc2)CC1 | 5.88%
69 | COc1ccc(CNC(=O)C(C)OC(=O)c2cccn2C)cc1 (stereo not drawn) | 0.715%
70 | CCN(CC(=O)NCc1cccs1)C(=O)COc1ccc(C(N)=O)cc1 | 6.77%
71 | COc1ccc(NC(=O)C(=O)N/N=C/c2cccnc2)c(OC)c1 | 19.6%
72 | Cc1ccc(Cl)cc1NC(=O)C1CCCN(S(C)(=O)=O)C1 (stereo not drawn) | 7.81%
73 | O=C(CSc1nncn1-c1cccnc1)Nc1cccc(C(F)(F)F)c1 | -3.57%
74 | COC(=O)/C(=N/Nc1ccccc1)N1CCCc2ccccc21 | 12.9%
75 | COc1ccc(-c2cc(C(=O)O)c3ccccc3n2)c(OC)c1 | 12.2%
76 | Cc1cccc(NC(=O)CSc2nnc(-c3ccc(S(=O)(=O)N4CCCC4)cc3)o2)c1 | 4.78%
77 | Cc1cc(C(=O)OCC(=O)NC2CCC(C)CC2)c(C)o1 (stereo not drawn) | 10.4%
78 | C=CCn1c(CNC(=O)c2ccco2)nnc1SCC(=O)Nc1cccc(F)c1 | -4.82%
79 | Cn1c(=O)cc(N2CCN(C(=O)c3ccco3)CC2)[nH]c1=O | 7.66%
80 | O=C(COC(=O)COc1ccccc1)Nc1ccccc1OC(F)F | -2.95%
81 | Cc1ccc(S(=O)(=O)NCC(=O)OCC(=O)NCc2cccs2)cc1 | 9.63%
82 | O=C(ON=C1CCN(S(=O)(=O)c2ccccc2)CC1)c1ccccc1 | 10.6%
83 | CCOC(=O)C1CCN(S(=O)(=O)c2ccc(NC(=O)c3ccco3)cc2)CC1 | 2.95%
84 | CCCNc1ncnc2sc(C)c(C)c12 | 9.55%
85 | Cc1nn(-c2ccccc2)c(C)c1C(=O)OCC(=O)NCc1ccco1 | 8.85%
86 | COC(=O)[C@@H](NC(=O)NCc1cccs1)C(C)C | -3.55%
87 | CCCc1cc(=O)[nH]c(SCC(=O)Nc2cc(S(=O)(=O)N3CCCCC3)ccc2C)n1 | 2.12%
